# Measurements published in PMC6555819.
# This is one part of the list.
# Target: T1, RARb (Homo sapiens) (UniProt P10826)
# T1 sequence: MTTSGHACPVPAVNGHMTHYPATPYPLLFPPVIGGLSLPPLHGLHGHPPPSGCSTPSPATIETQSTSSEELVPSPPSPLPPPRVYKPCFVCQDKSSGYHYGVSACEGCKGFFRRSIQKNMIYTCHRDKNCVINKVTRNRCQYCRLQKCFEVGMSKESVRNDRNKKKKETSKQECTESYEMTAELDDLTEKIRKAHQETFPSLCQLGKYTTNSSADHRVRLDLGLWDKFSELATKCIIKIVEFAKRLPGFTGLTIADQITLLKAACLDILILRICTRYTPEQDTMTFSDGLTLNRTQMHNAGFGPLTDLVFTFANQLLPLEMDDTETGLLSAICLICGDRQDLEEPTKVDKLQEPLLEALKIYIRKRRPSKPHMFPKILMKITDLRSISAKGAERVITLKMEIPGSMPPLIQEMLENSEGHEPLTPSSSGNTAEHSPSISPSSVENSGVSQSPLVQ
# Conditions: 270 nM, no RXRa, PBS pH 7.4, 2% milk, 0.02% Triton X-100, 1 mM DTT, BSA, 0.4 mg/ml salmon testes DNA; double strand, one strand shown
row,Sequence,binding signal (PBM z-score against 500 random probes)
1,GCGACTCAGACACTGCTGGCACCCGACACTGCTCTCGCGATTGACAGCGTAGAATGAAGG,-0.21
2,GCAAGAGAGAGACACAATGGCTAAAGAAGGAAGAGTGCGATTGACAGCGTAGAATGAAGG,0.39
3,GCGGTGTCGTGTGCCTGTGATCCCAGCTACGCAGGCGCGATTGACAGCGTAGAATGAAGG,-0.1
4,GCCACACCCAGCCTTAGGCATAGTGGCTCATGGTAGGCGATTGACAGCGTAGAATGAAGG,-0.92
5,GCCTCAGGCTGAGTTGTGGTAGTGTAATCATAGCTCGCGATTGACAGCGTAGAATGAAGG,-0.59
6,GCTTCCAGAATCAGACAATCACTGGGCTTGAACCAGGCGATTGACAGCGTAGAATGAAGG,-0.43

# Target: T2, VDR (Homo sapiens) (UniProt P11473)
# T2 sequence: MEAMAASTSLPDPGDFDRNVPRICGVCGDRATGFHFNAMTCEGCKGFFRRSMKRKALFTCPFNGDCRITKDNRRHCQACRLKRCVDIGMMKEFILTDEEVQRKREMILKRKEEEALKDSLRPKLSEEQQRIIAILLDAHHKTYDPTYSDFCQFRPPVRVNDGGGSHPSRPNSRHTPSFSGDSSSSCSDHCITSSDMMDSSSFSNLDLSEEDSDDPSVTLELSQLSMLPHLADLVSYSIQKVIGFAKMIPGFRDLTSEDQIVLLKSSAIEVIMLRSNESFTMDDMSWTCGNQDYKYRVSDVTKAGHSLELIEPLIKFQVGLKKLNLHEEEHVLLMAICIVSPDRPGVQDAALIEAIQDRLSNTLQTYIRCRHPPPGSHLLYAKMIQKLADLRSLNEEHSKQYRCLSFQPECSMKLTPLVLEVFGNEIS
# Conditions: 270 nM, no RXRa, PBS pH 7.4, 2% milk, 0.02% Triton X-100, 1 mM DTT, BSA, 0.4 mg/ml salmon testes DNA; double strand, one strand shown
row,Sequence,binding signal (PBM z-score against 500 random probes)
1,GCGACTCAGACACTGCTGGCACCCGACACTGCTCTCGCGATTGACAGCGTAGAATGAAGG,-0.32
2,GCTGATGGGCTTCAAGTTGCTAACCCAGGAAATGGAGCGATTGACAGCGTAGAATGAAGG,-0.21
3,GCGGTGTCGTGTGCCTGTGATCCCAGCTACGCAGGCGCGATTGACAGCGTAGAATGAAGG,-0.1
4,GCCTGGCTGGGCATGGTGGCTCATGCCTGTAATCCCGCGATTGACAGCGTAGAATGAAGG,-0.56
5,GCACACAGAGAAACTCTTGCCAGTAGCAGTAGTACCGCGATTGACAGCGTAGAATGAAGG,-0.26
